Test results from patent US11726087B2, “Methods, compositions, and kits for detection of aspergillosis” (priority 2013, dated 2023).

What was measured:
native Asp f2 = molecular target: T1, native Asp f2 (Aspergillus fumigatus, UniProt P79017); assay: Western blot, binding to native Asp f2; conditions: A. fumigatus culture filtrates, different glycosylation states
T1 construct: beads were incubated with native or recombinant Asp f2; endogenous in cells; host or cells: Aspergillus fumigatus (preparation of the native protein not described for this assay)
T1 sequence (P79017 32-310): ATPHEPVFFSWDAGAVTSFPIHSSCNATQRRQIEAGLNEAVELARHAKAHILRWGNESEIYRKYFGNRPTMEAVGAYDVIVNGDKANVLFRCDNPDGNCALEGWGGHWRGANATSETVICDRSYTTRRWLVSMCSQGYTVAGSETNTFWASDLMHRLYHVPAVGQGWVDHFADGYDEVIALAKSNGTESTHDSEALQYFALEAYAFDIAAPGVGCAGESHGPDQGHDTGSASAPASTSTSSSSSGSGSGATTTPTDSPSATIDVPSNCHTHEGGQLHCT
Method: (§1) Western blots were performed to compare the binding specificity of 5D7A1 and the recombinant scFvs generated in Example 8.

recombinant SMT3-Asp f2 = molecular target: T2, recombinant SMT3-Asp f2 (Aspergillus fumigatus, UniProt P79017); assay: Western blot, binding to recombinant SMT3-Asp f2; set-up: species or system A. fumigatus
T2 construct: 3: recombinant (r)SMT3-Asp f2; Thioredoxin (Trx) (N); His6 (internal); S-tag (internal); made in house; host or cells: Escherichia coli
T2 sequence (P79017 32-310, added parts left off): as the sequence (P79017 32-310) above
Method: as §1

B1: VH-G-515-VL-Fc scFv: scFv of 5D7A1, VH linked to VL via GS15 linker, fused to human IgG Fc; SEQ ID NO: 22 (protein)
chain: METDTLLLWVLLLWVPGSTGEVQLEESGAELARPGASVKMSCKASGYTFTTYTMHWVKQRPGQGLEWIGYINPSSGYTNYNQKFKDKATLTANKSSSIGYMQLSSLTSEDSALYYCLRRPYRSHGGWFFDVWGAGTTVTVSSAMALQASGGGGSGGGGSGGGGSASDIVMTQSQKFMSTSVGDRVSVTCKASQNVETNVAWYQQKLGQSPKALIYSASFRTSGVPDRFTGSGSGTDFTLTINNVQSEDLAEYFCQQYNTYPLTFGAGTKLELKV[human IgG1 Fc cut from this listing]
modifications: VH-GS15-VL-Fc scFv
Question: What does the source list for B1?
Answer: binding to native Asp f2 in Western blot (native Asp f2): bound native Asp f2; binding to recombinant SMT3-Asp f2 in Western blot (recombinant SMT3-Asp f2): weakly bound
